Assay results from the supplement of paper PMC3334620.
Whole data set: some 33,000 sequences, median “E-score (-0.5 to 0.5)” near -0.01, cut for the highest 2% near 0.26. This is one part of the list.

biological target: Ste12 (UniProt P13574); assay: PBM E-score (8-mer binding enrichment) (E-score (-0.5 to 0.5)); higher = stronger / more preferred TF binding; most listed sequences are background and not binding sites; details: protein concentration: 200 nM; construct: GST-DNA-binding domain
How it was run: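 Using PURExpress in vitro transcription/translation, GST-tagged yeast transcription factors were made in full-length or DNA-binding-domain form. These were applied at about 100-200 nM to double-stranded universal all-10-mer Agilent arrays, and bound protein was detected with fluorescent anti-GST. Scans were normalised with masliner before the Universal PBM Analysis Suite assigned E-scores to ungapped eight-base words pooled with their reverse complements.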

Sequence	PBM E-score
CTAGTGCC	-0.137
CAGCCACG	0.00078
ACAAGGCA	-0.133
GTACACAC	0.0515
ACTACCTG	-0.0539
GAGTGGCA	-0.0621
AGTCTCAA	0.101
AAAAGGCT	0.0572
ACTAGGTA	-0.245
CCGACATA	0.137
TGGGCCCA	-0.0326
TAACCAAA	0.255
CTAAATAC	0.0368
CTTGATGA	0.0849
TGACTAAA	0.0332
CGTCCATC	-0.0101
CGAAGATC	-0.149
AGTGGTAA	0.0447
ACCTGTCG	0.00512
CGTCGAAG	0.114
GGCGTAAA	0.0361
ATTGAGAA	0.277
ACCGTCGA	0.0435
GGCCGTAC	-0.00176
CATAGAGG	-0.0232

Sequence	PBM E-score
GCGGGTAA	-0.0288
AGCATTAT	-0.0448
ACCCGAAA	0.153
ACGAGGTC	-0.0542
GGGTATTA	0.121
ATTTGCCC	0.0444
ACTGGTAC	7e-05
CTCATTTC	-0.0747
CGTGAACA	0.137
AATTAGGC	0.179
ATATGTGC	-0.0357
CGTCATGA	0.0444
ATACCGAG	-0.0406
ATAGTCTA	-0.101
TCCGTCCA	0.00025
TAGGTCAA	-0.0728
CGTAATAG	0.126
GTCCTTAA	0.0395
AATCCGGC	-0.0829
CCTAATTA	-0.0252
CCCCCATC	-0.0759
ATATATTC	0.216
ACAAACAA	0.0589
CTGCATCC	-0.183
CCTTTCTC	-0.165

Sequence	PBM E-score
CGTACCGA	-0.15
CAGTCATC	-0.182
CCACCTGC	0.0383
ACGAATTG	0.0614
GTTTAGTA	0.064
AAGCTCTG	-0.0799
CTAAGCAA	-0.0422
CGAACGAA	0.0545
AGCTCTCA	-0.272
GTTTTGCA	0.116
GAGCTTCA	-0.0291
AGTTTCTG	0.15
CCCAGTGC	-0.0234
GATCGAAC	-0.12
CAAGTTTA	0.00155
GCGGTTAC	-0.0467
ACCCTAGC	-0.149
ATACATAC	0.134
ATAGCAGC	-0.184
AAATAAGT	0.126
AGTCTTTG	0.0528
GTAGTGGA	-0.0969
ACCACTCG	-0.0888
CCCTCCTC	0.0435
ACGTACCA	-0.197

Sequence	PBM E-score
AATCTCTC	0.0241
GCATCGGA	0.00997
CGGATTCA	-0.0888
GGCCTTGA	-0.112
TCTTTCAA	0.0772
CTTTGACC	0.128
AATCCGAG	0.101
AGGAATGC	0.026
AACAGCAC	0.0668
GCTGAGGA	-0.142
ACGGTTAG	-0.25
TAACAGCA	0.144
ATGCCGGG	0.0215
TCAGCTGA	0.144
ACTTTGCG	-0.0237
ATGAGCAG	-0.0984
ACCATCCG	0.0833
ACCCATCG	-0.0818
CCTACACA	0.158
AAAAGAGA	0.167
AATTATAC	0.146
ACGGTAGA	-0.119
AGACAACG	-0.0139
CGGATGAG	-0.11
ACTTCATA	0.21

Sequence	PBM E-score
ACAGTGCA	-0.00511
CACGGATA	0.146
AAAGTGCC	-0.155
CATTGTTC	0.126
GCTATTGA	-0.0818
AATAGCCG	-0.00261
CAATGACC	-0.123
GCGTGATA	-0.12
CACTAAGG	-0.048
ACACATAT	0.138
CTGAGGTA	0.141
CCACTTTA	0.128
CCAAATTA	0.221
AAACCGAA	0.107
CCCTAACG	-0.00496
GCGTGTTA	-0.089
AACATCCG	0.13
GTTGCTTA	0.0405
AACTTTGC	-0.0155
CGAGTTTA	0.0514
CGACTTCA	-0.0576
ACACACTG	-0.0515
ACAATACG	0.0553
ACCATCGC	0.0245
ACTTTTGA	0.0816

Sequence	PBM E-score
GGAGAGTA	-0.203
CACTTATA	0.0451
TCTTAGAA	0.00735
ACTGCAAG	-0.168
CTGCCAGC	0.0855
CCAGAGTA	0.03
ACGTGTCT	-0.0686
CCGAGGAA	0.0573
AATCCACT	0.0573
GCCTCGCA	-0.0343
CATGTAAG	0.0513
CTAAGGCC	-0.227
AACCGCTC	-0.0586
AGAGATCG	-0.133
AGAAGCAA	0.153
CACAAGTA	0.0865
CCCAACCG	-0.0994
AGGATTGG	-0.0651
AAATCGTT	0.147
CCCTGCCA	-0.0441
CCAGGCAG	-0.195
CACCCCAA	0.127
CCCGTTTA	0.0626
ACAAATAG	0.168
TACCTTAA	-0.00506

Sequence	PBM E-score
ACGTTTTA	0.295
GACTATAC	-0.0103
CCGGGGGC	-0.108
ACAGAGCT	0.0697
CCGTATAA	0.0753
CAGTCAGA	-0.0584
AAGTAGGT	-0.0143
CTCCTATC	-0.0959
ATGCGGGA	0.204
ATTTTAAA	0.348
GTGTAAAA	0.15
CTTGCCAC	-0.166
GTTGGGCA	-0.0559
AGTGCTTA	0.0157
AGTGGGCC	-0.231
GGTCTATA	-0.00369
GCCTTTAC	0.0563
AATACACT	0.063
GGTATTGA	-0.0386
AAGTCAAG	-0.0921
CTTTGAAC	0.0927
TCAAACAA	0.266
